Source: PubChem BioAssay AID445 (National Center for Advancing Translational Sciences (NCATS), 2006)
Hit rate of the full screen: of about 110,000 compounds, about 40 (0.04%) were called active. The inconclusive results got no clear call from the source; some entries with a clear call stand among them for comparison. Calls follow the shape of the dose curve; as a rule, active = well fitted curve in the direction sought with a large enough effect in the signal ratio (not every such curve was filed as active); inconclusive = small, poorly fitted or top-dose-only effect, or a change in a side signal; inactive = flat fitted curve, though single readings scatter; the % refers to the signal ratio. Potencies of inconclusive entries are doubtful fits and often do not repeat.

Experiment: IkB Signaling;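 as to IkBa stabilization activation: 0% = basal untreated cells and 100% = reference inhibitor full response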
Settings: ABC-DLBCL IkBa-CBG/CBR dual luciferase ratio (green luciferase fused to IkBa over red control in OCI-Ly3 lymphoma cells), 4 h; IkBa stabilization activation: at 57.1 µM (top of the series), scaled: untreated 0%, proteasome inhibitor 100% unless noted
How it was run: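 Luminescence ratio of IκBα-fused green versus native red beetle luciferase in OCI-Ly3 cells, 4 h post-doxycycline with compound; red signal alone, scaled from basal (0%) to zero light (-100%), flagged nonspecific or cytotoxic effects.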
Potency is read from the fitted curve at half-maximal effect.

SMILES | IkBa stabilization activation | Potency
N#Cc1c(N)sc(=S)c2c1CCCC2 | inactive | –
CC1(C)Cc2c(sc3nc(NCCN4CCOCC4)n4ncnc4c23)CO1 | inactive | –
Cc1cc(=O)n2c(C)n[nH]c2n1 | inactive | –
Cc1ccc(-c2nnc(N3CCOCC3)c3ccccc23)cc1S(=O)(=O)NCC1CCCO1 (stereo not given) | inactive | –
O=C(O)CC1c2ccccc2CCN1C(=O)Nc1cc(Cl)ccc1Cl (stereo not given) | inconclusive: 1.64% [signal inhibitor] | –
Cc1ccc(N(CC(=O)N2CCN(c3cc(C)ccc3C)CC2)S(=O)(=O)c2c(C)nn(C)c2C)cc1 | inconclusive: 3.77% [signal inhibitor] | –
O=c1cc(CSc2nnc(-c3cccs3)n2Cc2ccccc2)nc2sc3ccccc3n12 | inconclusive: 2.85% [signal inhibitor] | –
Cc1ccc2cc(CN(Cc3ccc4c(c3)OCO4)Cc3nnnn3Cc3ccco3)c(=O)[nH]c2c1 | inconclusive: 2.68% [signal inhibitor] | –
COc1ccc(-n2c(C)cc(C(=O)Cn3c(NCCO)nc4ccccc43)c2C)cc1 | inconclusive: 1.68% [signal inhibitor] | –
CCOC(=O)C1CCN(C(=O)c2cc3sc(C)cc3n2C)CC1 | inconclusive: 1.64% [signal inhibitor] | –
CCCCN(CC)C(=O)CSc1nc2n[nH]c(C)c2c(=N)n1-c1ccc(CC)cc1 | inconclusive: -6.14% [signal inhibitor] | –
CCOc1ccc(-c2cccc(NS(=O)(=O)c3ccc(C)s3)c2)nn1 | inactive | –
Cc1ccc(N(C)C(=O)c2sc3nc4n(c(=O)c3c2C)CCCC4)cc1C | inconclusive: 3.11% [signal inhibitor] | –
COCCCn1c(=O)c2sccc2n2c(CCCC(=O)NCc3cccc(OC)c3)nnc12 | inconclusive: 3.22% [signal inhibitor] | –
Cc1cccc(C)c1NC(=O)C(c1cccs1)N(Cc1ccco1)C(=O)Cn1nnc2ccccc21 (stereo not given) | inactive | –
COC(=O)c1ccc(C2C(C#N)=C(C)NC3=C2C(=O)CC(C)(C)C3)cc1 (stereo not given) | – | inconclusive: 10 µM [signal inhibitor, partial curve]
O=C(CSc1ncc(-c2ccccc2)[nH]1)Nc1ccccc1 | inconclusive: 8.84% [signal inhibitor] | –
CC(C)(C)c1ccc(C(=O)CCCSC2=C(C#N)C(c3ccco3)C3=C(CCCC3=O)N2)cc1 (stereo not given) | inconclusive: 1.49% [signal inhibitor] | –
Clc1ccc(OCc2nnc(-c3ccccc3Br)o2)cc1 | inconclusive: 1.24% [signal inhibitor] | –
CCCCOc1ccc(C(=O)Nc2ccc3c(c2)CCCN3C(=O)c2cccs2)cc1 | inconclusive: 3.16% [signal inhibitor] | –
O=C(CCC1N=C2c3ccccc3N=C(SCC(=O)Nc3cccc(Cl)c3)N2C1=O)NCc1ccco1 (stereo not given) | inconclusive: 3.04% [signal inhibitor] | –
Cc1cccn2c(=O)c3cc(C(=O)NCCN4CCOCC4)c(=N)n(CCc4ccccc4)c3nc12 | inactive | –
Cc1cc(C)cc(OCC(=O)Nc2cccc3cccnc23)c1 | inconclusive: 2.67% [signal inhibitor] | –
CCCc1cnc2c(c1SCC(=O)NCc1ccc(C)cc1)c(=O)n(C)c(=O)n2C | inconclusive: 2.52% [signal inhibitor] | –

SMILES | IkBa stabilization activation | Potency
CCOC(=O)c1ccc(N2C(=O)c3n[nH]c(-c4ccco4)c3C2c2ccc(C(=O)OC)cc2)cc1 (stereo not given) | inconclusive: 0.0237% [signal inhibitor] | –
COc1ccccc1CCNC(=O)Cc1c(C)c2cc(Cl)c(O)cc2oc1=O | inconclusive: 4.4% [signal inhibitor] | –
CCCCn1c(NC(=O)c2ccccc2)nc2ccccc21 | – | inconclusive: 20 µM [rising, partial curve]
N#CC(C(=O)NC1CCCCC1)c1nc2ccccc2nc1N1CCCCC1 (stereo not given) | inactive | –
CCCCOc1ccccc1C1CC(=O)Nc2ccc3ccccc3c21 (stereo not given) | inconclusive: 2.94% [signal inhibitor] | –
O=C(c1ccco1)n1c(=S)nc2ccccn21 | inactive | –
CCOc1ccc(CNC(=O)c2oc3c(c2C)-c2nn(Cc4cccc(Cl)c4)cc2CC3)cc1 | inconclusive: 6.43% [signal inhibitor] | –
O=C(Nc1ccc2c(c1)oc1ccccc12)c1ccc2c(c1)OCO2 | – | inconclusive: 3.98 µM [signal inhibitor, full curve]
COc1ccc(C)c2sc(NC(=O)c3ccc(S(=O)(=O)N(C)C)cc3)nc12 | inconclusive: 1.42% [signal inhibitor] | –
CCc1ccc(NC(=O)CN2C(=O)C(c3ccc(C)cc3)=NC23CCCCC3)cc1 | inconclusive: 0.279% [signal inhibitor] | –
CCCCC(=O)Nc1cc(N(C)C)nc2ccccc12 | inactive | –
CCc1ccc(CNC(=O)Cn2nc(C)n3c(cc4cc(C)ccc43)c2=O)cc1 | inactive | –
Cc1cccc(Cn2cccc2CNS(=O)(=O)c2ccccc2F)c1 | inconclusive: -0.926% [signal inhibitor] | –
COc1ccc2[nH]cc(CCNc3nc(-c4ccc(N(C)C)cc4)nc4ccccc34)c2c1 | inactive: -6.54% [at 11.4 µM, scaled: untreated 0%, proteasome inhibitor 100%] | –
COc1ccc(-c2nnc(N)s2)cc1 | inactive | –
CCCCOc1ccc(C2=NC(c3ccncc3)=Nc3ccc(OCC)cc3N2)cc1 | inconclusive: -3.03% [signal inhibitor] | –
COc1ccc2sc(N(Cc3cccnc3)C(=O)C3CCCCC3)nc2c1 | inconclusive: 0.16% [signal inhibitor] | –
CCOC(=O)c1cccc(NC(=O)c2cc3ccccn3n2)c1 | inconclusive: 11.4% [signal inhibitor] | –
Cc1nn(-c2ccc(F)cc2)c(-n2cccc2)c1C(=O)NCCc1ccc(Cl)cc1 | inactive | –
Cn1c(=O)c(C(=O)c2ccccc2)nc2ccccc21 | inactive | –
CC(C)OCCCn1c(SCC(=O)c2ccccc2)nc2c(sc3ccccc32)c1=O | inactive | –
Cc1cc(C)n2nc(CNS(=O)(=O)c3ccc(C)c(C)c3)nc2n1 | inconclusive: 0.862% [signal inhibitor] | –
CCCC(=O)Nc1nc2ccc(NC(=O)c3ccc(Br)o3)cc2s1 | inactive | –
FC(F)(F)c1cc(-c2ccco2)nc(NCc2cccs2)n1 | inactive | –

SMILES | IkBa stabilization activation | Potency
N#Cc1ccc(CN2CCC3(CC2)CCN(C(=O)c2ccco2)CC3)cc1 | inactive: 2.89% [at 11.4 µM, scaled: untreated 0%, proteasome inhibitor 100%] | –
CCOC(=O)CSc1nnc(CSc2nc(N)c3c(C)c(C)sc3n2)n1-c1ccccc1 | inconclusive: -3.58% [signal inhibitor] | –
O=C(C1CCN(S(=O)(=O)c2cccc3nonc23)CC1)N1CCN(c2cccc(Cl)c2)CC1 | inconclusive: 0.017% [signal inhibitor] | –
COc1ccc(NC(=O)CSc2nc3nc(C)c(Cc4ccccc4)c(C)n3n2)cc1OC | inconclusive: -0.0954% [signal inhibitor] | –
N#C[C@@H](Cc1ccc(O)c(O)c1)C(=O)N1CCc2ccccc21 | inactive | –
CC(C)[C@@H](CC(=O)N[C@@H]1CCCC[C@H]1C(=O)N[C@H](CC(=O)N[C@@H](CCC(=O)O)CC(=O)O)Cc1c[nH]c2ccccc12)NC(=O)C[C@H](Cc1c[nH]c2ccccc12)NC(=O)[C@@H]1CNCC[C@H]1N | inactive | –
COc1ccccc1N1CCN(C(=O)CSc2nnc(-c3ccoc3C)o2)CC1 | inconclusive: 1.52% [signal inhibitor] | –
Cc1ccc(C)c(N2CCN(C(=O)c3cc4c(=O)n(Cc5ccccc5)ccc4nc3C)CC2)c1 | inconclusive: 4.44% [signal inhibitor] | –
Cc1ccc2c(c1)N(C(=O)N1CCC(C(=O)NCCc3ccc(Cl)cc3)CC1)CC(C)O2 (stereo not given) | inconclusive: 1.79% [signal inhibitor] | –
Cc1cccc(OCCCC(=O)Nc2nccs2)c1 | inconclusive: 2.59% [signal inhibitor] | –
Cc1cc(F)ccc1S(=O)(=O)Nc1ccccc1C(=O)Nc1ncn[nH]1 | – | inconclusive: 31.6 µM [signal inhibitor, partial curve]
Cc1cccc(NS(=O)(=O)c2ccc3[nH]c4c(c3c2)CCCCCC4)c1 | inconclusive: 1.84% [signal inhibitor] | –
CCOc1cccc2c1N[C@@H](c1ccc(C(=O)O)cc1)[C@H]1CC=C[C@@H]21 | – | inconclusive: 25.1 µM [signal inhibitor]
Cc1ccc(-n2nc(C)c3c(C)c(CCC(=O)NCc4ccccc4Cl)c(C)nc32)cc1C | inconclusive: -1.8% [signal inhibitor] | –
Cc1cccc(-c2nc(CCNC(=O)Cc3ccccc3)cs2)c1 | inactive | –
O=C(COc1ccc(Cl)cc1)Nc1ccc2nc(SCC(=O)N3CCCC3)sc2c1 | inconclusive: 0.267% [signal inhibitor] | –
COCC(C)n1c(C)cc(C(=O)COC(=O)c2c(NC(C)=O)sc(C)c2C)c1C (stereo not given) | inactive | –
CCNc1ncc2nc(-c3cc(F)cc(F)c3)c(=O)n(Cc3cccs3)c2n1 | inactive: 0.149% [at 11.4 µM, scaled: untreated 0%, proteasome inhibitor 100%] | –
C/C=C(\CS(=O)(=O)c1ccccc1)S(=O)(=O)c1ccccc1 | – | inconclusive: 20 µM [signal inhibitor, partial curve]
CCn1c(=O)cc(SCC(=O)NCc2ccc(OC)cc2OC)c2ccccc21 | inactive | –
O=S(=O)(Nc1ccc2c(c1)oc1ccccc12)N1CCCC1 | inconclusive: 4.24% [signal inhibitor] | –
Cc1noc(C)c1COC(=O)Cc1ccc(Cl)c(Cl)c1 | inactive | –
